By IC50 is meant the dose at which the fit gives 50% viability; a fit beyond the top or the lowest dose is shown as a bound at that dose. For AUC the same curve is integrated over the 256-fold range of doses and scaled to a fraction; values near 1 show little effect. A top dose marked as inferred was calculated from the reported fits. For part of these data: Drugs with an entry number were screened twice under separate entries, and the two screens often disagree.
The cell lines below were run with CCNc1cc(NC2CCC(O)CC2)nc(Nc2ccc3c(ccn3Cc3ccccc3)c2)n1 [CGP-082996 (CINK4)] (assay: Viability of human cancer cell lines after 72 h of drug (GDSC screen)). Settings: top dose 5.12 µM; top dose inferred.
Protocol: (§1)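 Human cancer cell lines in 384-well plates, medium with 10% serum, drug for 72 h over a 256-fold dose range (nine 2-fold or five 4-fold steps up to the top dose). Adherent lines were fixed and stained with the nucleic acid dye Syto60, suspension lines read with resazurin; signal relative to control wells, capped at 0 and 100%. One two-parameter sigmoid per drug and line, fitted in a mixed model over all curves with the slope shared within a line.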

| Cell Line | AUC | IC50 [µM] |
| --- | --- | --- |
| NCI-H747 (large intestine, adherent) | 0.805 | 3.29 |
| NCI-H847 (small cell lung carcinoma, adherent) | 0.992 | > 5.12 |
| NCI-H1155 (large cell lung carcinoma, suspension) | 0.985 | > 5.12 |
| NCI-H1304 (small cell lung carcinoma, suspension) | 0.984 | > 5.12 |
| NCI-H1395 (lung adenocarcinoma, adherent) | 0.925 | > 5.12 |
| NCI-H1436 (small cell lung carcinoma, suspension) | 0.983 | > 5.12 |
| NCI-H1694 (small cell lung carcinoma, suspension) | 0.984 | > 5.12 |
| NCI-H1770 (non-small cell lung carcinoma, suspension) | 0.91 | > 5.12 |
| NCI-H1876 (small cell lung carcinoma, adherent) | 0.987 | > 5.12 |
| NCI-H2141 (small cell lung carcinoma, suspension) | 0.969 | > 5.12 |

What follows are cell lines tested with Cc1ccc(-n2nc(C(C)(C)C)cc2NC(=O)Nc2ccc(OCCN3CCOCC3)c3ccccc23)cc1 [BIRB 0796] in the same assay as above. Settings: top dose 10 µM; top dose inferred.
Protocol: as §1

| Cell Line | AUC | IC50 [µM] |
| --- | --- | --- |
| NB69 (neuroblastoma, adherent) | 0.977 | > 10 |
| NB(TU)1-10 (neuroblastoma, adherent) | 0.993 | > 10 |
| NB-4 (acute myeloid leukaemia, suspension) | 0.991 | > 10 |
| NCI-H82 (small cell lung carcinoma, suspension) | 0.989 | > 10 |
| NCI-H226 (lung squamous cell carcinoma, adherent) | 0.984 | > 10 |
| NCI-H345 (small cell lung carcinoma, suspension) | 0.989 | > 10 |
| NCI-H446 (small cell lung carcinoma, semi-adherent) | 0.979 | > 10 |
| NCI-H524 (small cell lung carcinoma, suspension) | 0.989 | > 10 |
| NCI-H720 (lung carcinoid, suspension) | 0.992 | > 10 |
| NCI-H747 (large intestine, adherent) | 0.981 | > 10 |
| NCI-H847 (small cell lung carcinoma, adherent) | 0.993 | > 10 |
| NCI-H1155 (large cell lung carcinoma, suspension) | 0.981 | > 10 |
| NCI-H1304 (small cell lung carcinoma, suspension) | 0.956 | > 10 |
| NCI-H1395 (lung adenocarcinoma, adherent) | 0.931 | > 10 |
| NCI-H1436 (small cell lung carcinoma, suspension) | 0.932 | > 10 |
| NCI-H1694 (small cell lung carcinoma, suspension) | 0.98 | > 10 |
| NCI-H1770 (non-small cell lung carcinoma, suspension) | 0.989 | > 10 |
| NCI-H1876 (small cell lung carcinoma, adherent) | 0.982 | > 10 |
| NCI-H2141 (small cell lung carcinoma, suspension) | 0.979 | > 10 |

Each cell line was assayed with Cc1cc(N2CCOCC2)cc2[nH]c(-c3c(NC[C@@H](O)c4cccc(Cl)c4)cc[nH]c3=O)nc12 [BMS-536924] in the same assay as above. Settings: top dose 4 µM; screen: GDSC drug entry 1091; top dose inferred.
Protocol: as §1

| Cell Line | AUC | IC50 [µM] |
| --- | --- | --- |
| NB(TU)1-10 (neuroblastoma, adherent) | 0.979 | > 4 |
| NB-4 (acute myeloid leukaemia, suspension) | 0.767 | 1.23 |
| NCI-H82 (small cell lung carcinoma, suspension) | 0.977 | > 4 |
| NCI-H226 (lung squamous cell carcinoma, adherent) | 0.843 | 3.04 |
| NCI-H345 (small cell lung carcinoma, suspension) | 0.95 | > 4 |
| NCI-H446 (small cell lung carcinoma, semi-adherent) | 0.935 | > 4 |
| NCI-H524 (small cell lung carcinoma, suspension) | 0.931 | > 4 |
| NCI-H720 (lung carcinoid, suspension) | 0.971 | > 4 |
| NCI-H747 (large intestine, adherent) | 0.904 | > 4 |
| NCI-H847 (small cell lung carcinoma, adherent) | 0.881 | 2.83 |
| NCI-H1155 (large cell lung carcinoma, suspension) | 0.993 | > 4 |
| NCI-H1304 (small cell lung carcinoma, suspension) | 0.917 | > 4 |
| NCI-H1395 (lung adenocarcinoma, adherent) | 0.946 | > 4 |
| NCI-H1436 (small cell lung carcinoma, suspension) | 0.984 | > 4 |
| NCI-H1694 (small cell lung carcinoma, suspension) | 0.959 | > 4 |
| NCI-H1770 (non-small cell lung carcinoma, suspension) | 0.968 | > 4 |
| NCI-H1876 (small cell lung carcinoma, adherent) | 0.871 | 3.83 |
| NCI-H2141 (small cell lung carcinoma, suspension) | 0.99 | > 4 |

Same assay, conditions: top dose 5.12 µM; screen: GDSC drug entry 62

| Cell Line | AUC | IC50 [µM] |
| --- | --- | --- |
| NB69 (neuroblastoma, adherent) | 0.502 | 0.324 |
| NB(TU)1-10 (neuroblastoma, adherent) | 0.54 | 0.406 |
| NB-4 (acute myeloid leukaemia, suspension) | 0.991 | > 5.12 |
| NCI-H82 (small cell lung carcinoma, suspension) | 0.963 | > 5.12 |
| NCI-H226 (lung squamous cell carcinoma, adherent) | 0.918 | > 5.12 |
| NCI-H345 (small cell lung carcinoma, suspension) | 0.867 | 5 |
| NCI-H446 (small cell lung carcinoma, semi-adherent) | 0.917 | > 5.12 |
| NCI-H524 (small cell lung carcinoma, suspension) | 0.926 | > 5.12 |
| NCI-H720 (lung carcinoid, suspension) | 0.986 | > 5.12 |
| NCI-H747 (large intestine, adherent) | 0.622 | 0.746 |
| NCI-H847 (small cell lung carcinoma, adherent) | 0.921 | > 5.12 |
| NCI-H1155 (large cell lung carcinoma, suspension) | 0.975 | > 5.12 |
| NCI-H1304 (small cell lung carcinoma, suspension) | 0.988 | > 5.12 |
| NCI-H1395 (lung adenocarcinoma, adherent) | 0.979 | > 5.12 |
| NCI-H1436 (small cell lung carcinoma, suspension) | 0.924 | > 5.12 |
| NCI-H1694 (small cell lung carcinoma, suspension) | 0.952 | > 5.12 |
| NCI-H1770 (non-small cell lung carcinoma, suspension) | 0.869 | 3.76 |
| NCI-H1876 (small cell lung carcinoma, adherent) | 0.9 | > 5.12 |
| NCI-H2141 (small cell lung carcinoma, suspension) | 0.869 | 4.51 |

The cell lines below were run with CC(C)=CC[C@@H](O)C1=CC(=O)c2c(O)ccc(O)c2C1=O [Shikonin] in the same assay as above. Settings: top dose 16 µM; top dose inferred.
Protocol: as §1

| Cell Line | AUC | IC50 [nM] |
| --- | --- | --- |
| NB69 (neuroblastoma, adherent) | 0.26 | 228 |
| NB(TU)1-10 (neuroblastoma, adherent) | 0.345 | 397 |
| NB-4 (acute myeloid leukaemia, suspension) | 0.646 | 2330 |
| NCI-H82 (small cell lung carcinoma, suspension) | 0.958 | > 16000 |
| NCI-H226 (lung squamous cell carcinoma, adherent) | 0.411 | 562 |
| NCI-H345 (small cell lung carcinoma, suspension) | 0.495 | 969 |
| NCI-H446 (small cell lung carcinoma, semi-adherent) | 0.817 | 9760 |
| NCI-H524 (small cell lung carcinoma, suspension) | 0.987 | > 16000 |
| NCI-H720 (lung carcinoid, suspension) | 0.989 | > 16000 |
| NCI-H747 (large intestine, adherent) | 0.377 | 425 |
| NCI-H847 (small cell lung carcinoma, adherent) | 0.487 | 927 |
| NCI-H1155 (large cell lung carcinoma, suspension) | 0.896 | 13400 |
| NCI-H1304 (small cell lung carcinoma, suspension) | 0.867 | > 16000 |
| NCI-H1395 (lung adenocarcinoma, adherent) | 0.903 | > 16000 |
| NCI-H1436 (small cell lung carcinoma, suspension) | 0.414 | 561 |
| NCI-H1694 (small cell lung carcinoma, suspension) | 0.48 | 885 |
| NCI-H1770 (non-small cell lung carcinoma, suspension) | 0.237 | 196 |
| NCI-H1876 (small cell lung carcinoma, adherent) | 0.758 | 5610 |
| NCI-H2141 (small cell lung carcinoma, suspension) | 0.589 | 1740 |

These cell lines were tested with NC(=O)c1ccc(N(C(N)=O)c2c(F)cccc2F)nc1-c1ccc(F)cc1F [VX-702] in the same assay as above. Settings: top dose 2 µM; top dose inferred.
Protocol: as §1

| Cell Line | AUC | IC50 [nM] |
| --- | --- | --- |
| NB69 (neuroblastoma, adherent) | 0.976 | > 2000 |
| NB(TU)1-10 (neuroblastoma, adherent) | 0.94 | > 2000 |
| NB-4 (acute myeloid leukaemia, suspension) | 0.966 | > 2000 |
| NCI-H82 (small cell lung carcinoma, suspension) | 0.939 | > 2000 |
| NCI-H226 (lung squamous cell carcinoma, adherent) | 0.983 | > 2000 |
| NCI-H345 (small cell lung carcinoma, suspension) | 0.99 | > 2000 |
| NCI-H446 (small cell lung carcinoma, semi-adherent) | 0.98 | > 2000 |
| NCI-H524 (small cell lung carcinoma, suspension) | 0.964 | > 2000 |
| NCI-H720 (lung carcinoid, suspension) | 0.989 | > 2000 |
| NCI-H747 (large intestine, adherent) | 0.98 | > 2000 |
| NCI-H847 (small cell lung carcinoma, adherent) | 0.993 | > 2000 |
| NCI-H1155 (large cell lung carcinoma, suspension) | 0.984 | > 2000 |
| NCI-H1304 (small cell lung carcinoma, suspension) | 0.983 | > 2000 |
| NCI-H1395 (lung adenocarcinoma, adherent) | 0.962 | > 2000 |
| NCI-H1436 (small cell lung carcinoma, suspension) | 0.962 | > 2000 |
| NCI-H1694 (small cell lung carcinoma, suspension) | 0.988 | > 2000 |
| NCI-H1770 (non-small cell lung carcinoma, suspension) | 0.989 | > 2000 |
| NCI-H1876 (small cell lung carcinoma, adherent) | 0.984 | > 2000 |
| NCI-H2141 (small cell lung carcinoma, suspension) | 0.99 | > 2000 |

The cell lines below were run with Cc1cccc(-c2[nH]c(C(C)(C)C)nc2-c2ccc3nccnc3c2)n1 [SB-525334] in the same assay as above. Settings: top dose 20 µM; top dose inferred.
Protocol: as §1

| Cell Line | AUC | IC50 [µM] |
| --- | --- | --- |
| NB69 (neuroblastoma, adherent) | 0.922 | > 20 |
| NB(TU)1-10 (neuroblastoma, adherent) | 0.912 | > 20 |
| NB-4 (acute myeloid leukaemia, suspension) | 0.918 | > 20 |
| NCI-H82 (small cell lung carcinoma, suspension) | 0.863 | 15.8 |
| NCI-H226 (lung squamous cell carcinoma, adherent) | 0.967 | > 20 |
| NCI-H345 (small cell lung carcinoma, suspension) | 0.989 | > 20 |
| NCI-H446 (small cell lung carcinoma, semi-adherent) | 0.938 | > 20 |
| NCI-H524 (small cell lung carcinoma, suspension) | 0.976 | > 20 |
| NCI-H720 (lung carcinoid, suspension) | 0.984 | > 20 |
| NCI-H747 (large intestine, adherent) | 0.942 | > 20 |
| NCI-H847 (small cell lung carcinoma, adherent) | 0.921 | > 20 |
| NCI-H1155 (large cell lung carcinoma, suspension) | 0.918 | > 20 |
| NCI-H1304 (small cell lung carcinoma, suspension) | 0.98 | > 20 |
| NCI-H1395 (lung adenocarcinoma, adherent) | 0.969 | > 20 |
| NCI-H1436 (small cell lung carcinoma, suspension) | 0.931 | > 20 |
| NCI-H1694 (small cell lung carcinoma, suspension) | 0.959 | > 20 |
| NCI-H1770 (non-small cell lung carcinoma, suspension) | 0.98 | > 20 |
| NCI-H1876 (small cell lung carcinoma, adherent) | 0.937 | > 20 |
| NCI-H2141 (small cell lung carcinoma, suspension) | 0.966 | > 20 |

From the supplement of paper PMC4967469
